Test results from the supplement of paper PMC3334620.
Over roughly 33,000 sequences, “E-score (-0.5 to 0.5)” has its median near -0.012; the highest 2% begin near 0.29. Some of the results follow.

biological target: T1, Ybr033w (UniProt P38073); test: PBM E-score (8-mer binding enrichment) (E-score (-0.5 to 0.5)); higher = stronger / more preferred TF binding; most listed sequences are background and not binding sites; details: protein concentration: 200 nM; construct: GST-full length
T1 sequence: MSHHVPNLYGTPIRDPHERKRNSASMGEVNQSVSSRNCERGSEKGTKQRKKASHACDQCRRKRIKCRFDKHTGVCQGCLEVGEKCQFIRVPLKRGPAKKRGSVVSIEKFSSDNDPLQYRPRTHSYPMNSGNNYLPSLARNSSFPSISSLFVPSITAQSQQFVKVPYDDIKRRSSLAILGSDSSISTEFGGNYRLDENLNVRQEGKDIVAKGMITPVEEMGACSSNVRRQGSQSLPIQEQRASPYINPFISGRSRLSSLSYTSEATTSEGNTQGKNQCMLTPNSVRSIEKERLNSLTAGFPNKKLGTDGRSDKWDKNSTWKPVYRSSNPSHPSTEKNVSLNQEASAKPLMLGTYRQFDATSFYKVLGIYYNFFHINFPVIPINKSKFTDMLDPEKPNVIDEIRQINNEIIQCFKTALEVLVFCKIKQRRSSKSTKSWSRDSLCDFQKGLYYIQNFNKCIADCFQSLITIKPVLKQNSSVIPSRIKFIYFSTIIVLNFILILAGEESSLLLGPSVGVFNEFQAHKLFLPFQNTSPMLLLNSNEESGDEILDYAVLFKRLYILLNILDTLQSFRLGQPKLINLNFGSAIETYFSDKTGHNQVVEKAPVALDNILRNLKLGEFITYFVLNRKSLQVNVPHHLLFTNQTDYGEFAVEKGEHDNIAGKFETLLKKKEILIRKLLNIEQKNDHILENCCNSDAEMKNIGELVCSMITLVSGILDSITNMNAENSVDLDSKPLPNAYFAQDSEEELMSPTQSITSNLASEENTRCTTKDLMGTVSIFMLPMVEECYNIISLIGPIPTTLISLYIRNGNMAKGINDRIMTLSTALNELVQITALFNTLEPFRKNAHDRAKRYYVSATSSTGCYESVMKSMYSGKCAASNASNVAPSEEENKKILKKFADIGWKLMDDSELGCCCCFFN
In short: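 Yeast transcription factors, full-length or as DNA-binding domains, were expressed with a GST tag using PURExpress in vitro transcription/translation. At about 100-200 nM they were applied to universal all-10-mer Agilent arrays, double-stranded by primer extension on fresh or once-stripped slides. Fluorescent anti-GST detected bound protein, and masliner normalised the scans. E-scores for ungapped eight-base words, pooled with reverse complements, came from the Universal PBM Analysis Suite.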

Sequence	PBM E-score
AAGAGCCT	-0.0721
ACGCTCAC	-0.0506
GTCAGATA	0.119
GATACAGC	-0.00182
CTGATTGC	-0.0487
TCTTAAGA	-0.0768
CTCGGAGA	-0.0768
AAATCGGG	0.0855
ATATCTAA	0.213
GTCCTAGA	-0.191
AAACCATG	0.0309
TGACGTCA	0.205
GAACTACC	0.0466
ATCATAGC	0.149
AGAACAGC	0.0617
CTAATCTA	0.107
CTGCTGAC	-0.101
GAACACGC	-0.00223
CTATGGGA	-0.129
AAGTGCCC	-0.341
ACCTTTCA	-0.0108
ACGCGGCG	-0.168
GACGATCC	0.023
AGATCTAG	-0.112
AGCATACT	-0.004

Sequence	PBM E-score
ATTTGATA	0.24
CTCGTACC	-0.0303
CCATACTA	0.285
GCCTCGAC	-0.265
ACGTAAGG	-0.0499
AGTGGGAG	-0.148
AGTGTCGC	0.0408
ACAACCTG	-0.0436
ATAGATAT	0.197
ATACACCA	0.158
CGACTAAG	-0.0131
GGCACACC	-0.285
ATTTTCCC	0.386
GTATTTAA	0.267
TCTACGAA	-0.105
TCTGCAGA	-0.188
AGGGCCGA	-0.064
ACGCGGCA	-0.188
CGGTAGCA	-0.112
CAGGATGC	-0.00818
GAAAAGAA	0.135
AGCTGTGC	-0.0796
AAGCATGC	-0.0259
AGGGCTGA	-0.122
AGGTAGCG	0.0165

Sequence	PBM E-score
TACACATA	0.0729
GAGGATAA	0.0436
ACTGAACA	0.129
ACGCCGGC	-0.0959
GCATATGC	-0.016
AGCAAGAG	-0.161
AAGTAAAT	0.228
ATGGACAC	0.0613
CTGCTTTC	0.129
AGAATGTA	0.12
GGTTGCAA	0.0604
CCCGAACA	-0.116
AAGTACCT	-0.0912
CGAAATTC	0.107
ATGCTGGC	-0.00335
ACGATCAC	-0.145
AACTGCTT	0.0101
CGGAAATA	0.433
ATTGGTTA	0.212
AATAGCCC	-0.0499
TACGCGGA	0.0454
ACGCCGCG	-0.129
CCCTAGAA	-0.0272
ACACGTAT	0.11
CAGAACGG	-0.191

Sequence	PBM E-score
CGTCCCGA	-0.0892
CTACCGAC	-0.117
ATTTTGAC	0.171
AAAACGGT	-0.016
GCCCAGCC	-0.099
GACTATAA	0.102
AACCACCC	-0.235
ACTGATCC	0.00583
CAATTACG	0.0611
AATCACAG	0.0305
AAACAAAT	0.287
GCAAAACC	-0.0331
CTGAAACC	-0.00354
CGGGTAGA	-0.0322
AAGGGGAG	-0.235
CATCACCA	-0.0166
CCTCCACG	-0.12
ATTTGCGA	0.255
ACCTTTTC	-0.0691
TCTAAAAA	0.147
CTGCAGTA	-0.0696
TGAAAGAA	0.188
CCCGCCGC	-0.016
GTTTGACA	0.0683
AGATCCGG	-0.0199

Sequence	PBM E-score
CCATGTTC	-0.149
GACGCGAA	0.0187
AAAAGAAT	0.261
ACGCACGT	-0.133
ACGATAGA	-0.131
ACATAACG	0.238
CCTTTATA	0.0474
CCCCGTGC	-0.195
CGCGTACC	-0.0861
TACGACAA	0.138
CTACAGTC	-0.185
ATCGCGGA	-0.0841
GTGCGAAC	-0.122
AGCCTTTA	0.0955
AGAAGATG	0.0792
ACAGGTAT	0.204
ACCACTCC	-0.087
ATCATCAG	0.0449
TATGTAAA	0.244
CCGGCGCG	-0.151
CGGTTGGA	0.0125
AACAAGCA	0.11
CCGCTTCG	-0.237
AGTATCAA	0.224
ATTGCAGG	-0.0365

Sequence	PBM E-score
TTTACAAA	0.271
AGATGGTG	-0.108
ATTGAAAT	0.296
AAACGTCA	-0.0509
CCACTACG	-0.159
GGTGGGCA	-0.207
GAGACAGA	-0.0423
ATTCGGTC	-0.00492
CAACGCGA	-0.135
GTTGGCCA	-0.115
GAACGAGA	-0.0948
ACCGCGCA	-0.0661
ACGGACGC	-0.127
TAGTTGCA	0.0995
CGTCAACC	-0.00887
GATATTTA	0.338
CCACGACA	-0.21
CAGGGAGG	-0.241
CTGTTATC	0.121
ACGCTGGA	-0.096
GCCGCAGC	-0.276
ACCTCATG	-0.276
GGAGAATA	0.198
GCGGGTGA	-0.104
GTTTTAAA	0.165

Sequence	PBM E-score
CGTGCGGC	-0.204
CAGAAGCG	0.0103
ACCGTAGC	-0.109
GTGTCCAA	0.0396
GTAATTAC	0.218
AGCGGCTG	-0.0668
GAAAGGGA	-0.0854
GCACTAAC	-0.112
ATCCTGGC	-0.0209
AATTCAGC	0.107
AGCACGAC	-0.0495
AATTTTGT	0.215
CACAGTCC	-0.197
CTGTGCTC	-0.0511
GAACTCAA	0.0888
AGGCGTCG	-0.162
CAGTTATG	0.0877
AGTATGCG	-0.00038
CCCCGCCA	-0.00658
AGACTTAT	-0.00502
GCACCCGA	-0.0735
AACGTGCT	-0.156
AAATAATA	0.344
CGGCAGAC	-0.135
AGCGGTTG	0.00536

Sequence	PBM E-score
ACCAACGG	-0.173
ATGGTGCC	-0.171
AGCAGGGG	-0.279
GGACCCGA	-0.153
GTGACAAA	-0.0827
TCGTGAAA	-0.0359
TAAATACA	0.229
TGTGCTAA	0.234
GGACTTTA	-0.00904
AACTCTCG	0.073
AACCTTAG	-0.142
TAATGAAA	0.238
TACTTACA	0.011
CAGGCGAG	-0.245
AGGACATC	0.028
CGCGCAGA	0.0903
ATGGTGGG	-0.245
ATCGGAAA	0.286
GCCTACCC	-0.191
GTTCAAGA	0.124
ATGGAGCA	-0.0275
CCGCCGTC	-0.0904
GCCCTACC	-0.151
AACTCCTC	-0.053
GCGGCATA	0.0599

Sequence	PBM E-score
CGACTTGA	-0.0147
CACACTAG	0.0753
ACGACGTG	0.0301
TGACAGCA	0.136
ACGAATGA	0.0902
GGCTACAA	-0.149
CCACTGTA	0.0804
AATCGGAC	-0.095
AAGTCCAC	-0.0692
GCGTATCA	0.0712
CAGCGGCA	-0.202
GGCGTGAA	-0.174
ACTGAGCG	-0.0469
ACCAGTGA	-0.111
CTAGCCTC	-0.139
GAATTGAA	0.246
ACAGGCTG	-0.109
GACAAGGC	-0.196
ACGGGAAA	0.0598
